# In PubChem BioAssay AID686979 (National Center for Advancing Translational Sciences (NCATS), 2013):
# Where “and” joins values, the source holds several entries; their conditions need not be identical. Equal values may be shown once. About 50,000 (12%) of roughly 420,000 compounds were called active. The inconclusive results got no clear call from the source; some entries with a clear call stand among them for comparison. The call rests on the fitted dose curve; in most records, active means well fitted inhibition curve with a large enough effect; inconclusive means small, poorly fitted or top-dose-only effect; inactive means flat fitted curve, though single readings scatter. Potencies of inconclusive entries are doubtful fits and often do not repeat.
# Test: qHTS for Inhibitors of human tyrosyl-DNA phosphodiesterase 1 (TDP1): qHTS in cells in presence of CPT; further: nearly all actives have a fitted effect of over 55% in size
# Conditions: chicken DT40 Tdp1-/-;hTDP1 cells + 20 nM CPT, ATP luminescence, 48 h; activity change, negative = growth inhibition: at 46.2 µM (top of the series) unless noted
# In short: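 Chicken DT40 Tdp1-/- cells stably complemented with human TDP1 were seeded at 400 cells/well in medium containing 20 nM camptothecin, exposed to pin-transferred compounds, and grown at 37 °C for at least 48 hr. Viability was read as ATP luminescence.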
# On the % scale 0 is the no-effect control and ±100 the full control effect; potency means the concentration at half of the fitted maximal effect; tags describe the fitted curve by direction and shape.
Compound,Potency,"activity change, negative = growth inhibition"
S=C(NN=C1CCN(Cc2ccccc2)CC1)NC1CCCCC1,"inconclusive: 29.1 µM [inhibitor, single point]",–
CC1CCC(NC(=O)C2CCN(c3c4c(nc5ncnn35)CCC4)CC2)CC1 (stereo not drawn),"inconclusive: 23.1 µM [inhibitor, partial curve]",–
COc1ccc(C(=O)c2ccccc2)c(OCC(=O)NC2CC2)c1,"inconclusive: 23.1 µM [inhibitor, single point]",–
O=C(COc1ccc(-c2ccccc2)cc1)N/N=C/c1ccccc1Br,–,inactive: -3.83%
Cc1snc(SCC(=O)c2ccc([N+](=O)[O-])cc2)c1C#N,"inconclusive: 18.4 µM [inhibitor, single point]",–
O=C(CCCC1=NS(=O)(=O)c2ccccc2N1)N1CCN(c2ccccc2)CC1,"inconclusive: 29.1 µM [inhibitor, single point]",–
O=C(CCSCc1ccc(Cl)cc1)N1CCN(c2ccccc2F)CC1,–,inactive: -12%
O=C(NCCC1=CCCCC1)C1CCN(C(=O)c2ccc(Br)cc2)CC1,"inconclusive: 29.1 µM [inhibitor, single point]",–
COc1ccc(C(=O)C2CCCN(C(=O)CCc3ccccn3)C2)c(C)c1 (stereo not drawn),"inconclusive: 29.1 µM [inhibitor, single point]",–
CC(C)(C)C1CCc2c(sc(N)c2C(N)=O)C1 (stereo not drawn),active: 23.1 µM,–
O=C(Nc1ccc(Oc2ccc(NC(=O)c3ccco3)c(NC(=O)c3ccco3)c2)cc1)c1ccco1,"inconclusive: 18.4 µM [inhibitor, single point]",–
O=C(NC1C2CC3CC(C2)CC1C3)C1CC1 (stereo not drawn),"inconclusive: 6.51 µM [inhibitor, single point]",–
NC(=O)c1cc(S(=O)(=O)NCc2ccc(Br)cc2)cs1,"inactive and inconclusive: 29.1 µM [inhibitor, single point]",–
O=C(N1CCOCC1)N1CCN(S(=O)(=O)c2ccc(Cl)cc2)CC1,–,inactive: -6.53%
CN(C)C(=O)CCCc1nc(-c2ccc(Cl)cc2)no1,"inconclusive: 29.1 µM [inhibitor, single point]",–
CCn1c2ccccc2c2nnc(NN)nc21,"inconclusive: 29.1 µM [inhibitor, single point]",–
O=C(NC1CCCC1)C(c1ccccc1)n1c(-c2cccs2)nc2ccccc21 (stereo not drawn),"inconclusive: 29.1 µM [inhibitor, single point]",–
N#CCC(=O)NNc1c([N+](=O)[O-])cc(C(F)(F)F)cc1[N+](=O)[O-],"inconclusive: 29.1 µM [inhibitor, single point]",–
COc1ccc(NC(=O)/C=C/c2ccc(S(=O)(=O)N3CCOCC3)cc2)cc1,–,inactive: -2.36%
Cc1ccsc1C(=O)N1CCCC(N2CCN(c3cccc(Cl)c3)CC2)C1 (stereo not drawn),"inconclusive: 29.1 µM [inhibitor, single point]",–
Cc1ccc2c(c1)C=CC(C)N2C(=O)c1ccccc1 (stereo not drawn),"inconclusive: 20.6 µM [inhibitor, partial curve]",–

Compound,Potency,"activity change, negative = growth inhibition"
Cc1oc(=O)c(NC(=O)c2ccccc2)cc1C(=O)c1ccccc1,"inconclusive: 18.4 µM [inhibitor, single point]",–
Nc1nc(-c2ccc(Cl)cc2)c(N=Nc2ccc(S(=O)(=O)N3CCOCC3)cc2)s1,"inconclusive: 23.1 µM [inhibitor, single point]",–
CCC(C)[C@H](NC(=O)N1CCn2c1nc1ccccc12)C(=O)NCc1ccccc1 (stereo partly drawn),"inconclusive: 29.1 µM [inhibitor, single point]",–
Cc1ccc(N2CC(C(=O)Nc3nccs3)CC2=O)cc1Cl (stereo not drawn),"inconclusive: 35.5 µM [inhibitor, partial curve]",–
COc1cc(C(c2sc3nc(C)nn3c2O)N2CCc3ccccc3C2)cc(OC)c1OC (stereo not drawn),active: 23.1 µM,–
CCOc1ccc2oc(=O)cc(CN3CCN(C(=O)c4cccc(F)c4)CC3)c2c1,"inconclusive: 18.4 µM [inhibitor, single point]",–
Cc1nn(-c2ccccc2)c(C)c1C(=O)OCC(=O)Nc1ccccc1C(F)(F)F,"inconclusive: 20.6 µM [inhibitor, single point]",–
c1cncc(-c2cn(C[C@H]3CC[C@@H]([C@@H]4CC[C@H](Cn5cc(-c6cccnc6)nn5)O4)O3)nn2)c1,–,inactive: -11.6%
N/C(=N\OC(=O)COc1ccc(Cl)cc1Cl)c1ccncc1,–,inactive: -14.7%
COC(=O)NC1(C(=O)O)CCCC1,–,inactive: -0.981%
O=C(Nc1ccc2c(c1)OCCO2)C(c1ccc(C(F)(F)F)cc1)n1c(=O)c(-c2cc3ccccc3[nH]2)nc2ccccc21 (stereo not drawn),"inconclusive: 20.6 µM [inhibitor, single point]",–
CCc1cccc(-n2c(=O)c3cccnc3n2CC(=O)NCc2ccccc2Cl)c1,"inconclusive: 29.1 µM [inhibitor, single point]",–
COc1cc(OC)cc(-c2c(-c3cccs3)c3cc(-c4cccc5[nH]ccc45)ccc3n2C)c1,"inconclusive: 29.1 µM [inhibitor, single point]",–
O=C(NCc1ccccc1)C1(c2ccccc2)CCN(S(=O)(=O)c2ccccc2)CC1,"inconclusive: 23.1 µM [inhibitor, partial curve]",–
O=C(NCc1ccco1)Nc1cccc([N+](=O)[O-])c1,"inconclusive: 6.51 µM [inhibitor, partial curve, poor fit]",–
C#CCNC(=O)C1=C[C@H](C2CCCCC2)C[C@H](OCCCCO)O1,–,inconclusive: -34.1% [inhibitor]
COc1ccc(C2Nc3ccc(NC(C)=O)cc3C(=O)N2Cc2ccccc2)cc1COc1ccc(NC(C)=O)cc1 (stereo not drawn),"inconclusive: 35.5 µM [inhibitor, single point]",–
O=C1N[C@H]2CC=C[C@H]2N(Cc2cccs2)c2ccccc21,"inconclusive: 18.4 µM [inhibitor, single point]",–
CCCn1nnc(NC(=S)NC(=O)c2ccccc2OC)n1,"inconclusive: 29.1 µM [inhibitor, single point]",–
CN[C@@H]1[C@H](O[C@H]2[C@H](O[C@H]3[C@H](O)[C@@H](O)[C@H](N=C(N)N)[C@@H](O)[C@@H]3N=C(N)N)O[C@@H](C)[C@]2(O)C=O)O[C@@H](CO)[C@H](O)[C@H]1O,–,inactive: 3.86%
O=C(c1cccc(Br)c1)c1cn(-c2ccccc2)nc1C(=O)c1ccccc1,active: 18.4 µM,–

Compound,Potency,"activity change, negative = growth inhibition"
CC(OC(=O)CSCC(=O)Nc1ccc(Cl)cc1)C(=O)N(C)Cc1ccccc1 (stereo not drawn),"inconclusive: 29.1 µM [inhibitor, single point]",–
CCC(C(=O)N1CCc2cc(OC)c(OC)cc2C1)c1ccccc1 (stereo not drawn),–,inactive: -33.5%
Cc1nn(Cc2ccccc2Cl)c(C)c1NC(=O)c1nc2ncccn2n1,active: 13 µM,–
CCOc1cccc(C2C=C(c3ccc4c(c3)OCO4)NC(c3ccc(Br)cc3)N2)c1O (stereo not drawn),"inconclusive: 22.4 µM [inhibitor, single point]",–
C/C(N)=C(/C#N)C(=O)CSc1nnc(-c2ccc3c(c2)OCO3)o1,"inconclusive: 20.6 µM [inhibitor, partial curve]",–
CCOC(=O)N1CCC(N2Cc3cccc(C(=O)NC(C)c4ccc5c(c4)OCCO5)c3C2=O)CC1 (stereo not drawn),"inconclusive: 23.1 µM [inhibitor, partial curve, poor fit]",–
CC[C@@H](C(=O)n1nc(C)cc1C)[C@H](NS(=O)(=O)c1ccc(C)cc1)c1ccccc1,"inconclusive: 18.4 µM [inhibitor, single point]",–
CC1(C)C(=O)Nc2ccccc2N1C(=O)CSc1nc(-c2ccccc2)cs1,"inconclusive: 25.9 µM [inhibitor, single point]",–
COc1ccc(C(=O)CC(Nc2ccc([N+](=O)[O-])cc2)c2ccc(OC)cc2)cc1 (stereo not drawn),"inconclusive: 25.9 µM [inhibitor, single point]",–
CCOC(=O)[C@]12CCC=C1N(Cc1ccccc1)C(=O)[C@H](CC(=O)NCc1ccc(C)o1)C2,–,inactive: -29.3%
CN1C[C@@H]2C(c3ccccc3)C3(c4ccc(C#N)cc4)CC2(C3)[C@H]1c1ccccc1 (stereo partly drawn),"inconclusive: 25.9 µM [inhibitor, single point]",–
Cc1nnc2ccc(-c3ccc(NS(=O)(=O)c4ccccc4F)cc3)nn12,"inconclusive: 29.1 µM [inhibitor, single point]",–
O=C1CC(c2ccco2)CC2=C1C(c1ccccc1)n1nc(C(F)(F)F)nc1N2 (stereo not drawn),–,inactive: -13%
C#CCNC(=O)C1=C[C@H](C)[C@@H](CCCO)[C@H](OCC)O1,–,inactive: -6.97%
Cc1ccc(S(=O)(=O)N(C)CCCC(=O)Nc2ccncc2)cc1,active: 10.3 µM,–
Cc1ccc(C)c(N2CCN(C(=O)CCC(=O)Nc3nnc(C(F)(F)F)s3)CC2)c1,"inconclusive: 23.1 µM [inhibitor, single point]",–
Cc1ccccc1C(=O)N1CCN(c2ccc(NC(=O)c3cccnc3Cl)cc2)CC1,"inconclusive: 16.4 µM [inhibitor, single point]",–
Nc1c(N(CCC2=CCCCC2)C(=O)c2ccccc2F)c(=O)[nH]c(=O)n1Cc1ccccc1,"inconclusive: 29.1 µM [inhibitor, single point]",–
Oc1cccc(-c2c3nc(c(-c4cccc(O)c4)c4ccc([nH]4)c(-c4cccc(O)c4)c4nc(c(-c5cccc(O)c5)c5ccc2[nH]5)CC4)C=C3)c1,active: 26.6 µM,–
Cc1ccc(NC(=O)COc2ccc(/C=C3/SC(=Nc4ccccc4)N(Cc4cccnc4)C3=O)cc2)cc1,active: 5.17 µM,–
COc1ccc(N2CCN(C(=O)c3ccc(NC(=O)c4nsc5ccccc45)cc3)CC2)cc1,"inconclusive: 25.9 µM [inhibitor, single point]",–
